Laboratory results from PubChem BioAssay AID1347430 (National Center for Advancing Translational Sciences (NCATS), 2020).
Out of some 91,000 compounds screened, about 130 (0.14%) were called active. This list was built around the results that the source calls inconclusive (neither active nor inactive); the mix of calls is not that of the screen. Calls follow the shape of the dose curve; as a rule, active = well fitted inhibition curve with a large enough effect; inconclusive = small, poorly fitted or top-dose-only effect; inactive = flat fitted curve, though single readings scatter. Potencies beside an inconclusive call are fits to weak or partial responses and may not hold up.
Also: nearly all actives have a fitted effect of over 65% in size.
Potency is read from the fitted curve at half-maximal effect; tags tell the direction and shape of the fitted curve.

What follows are compounds tested on Uracil-DNA glycosylase (assay: Primary qHTS assay for inhibitors of Activation Induced Cytidine Deaminase (AID): UDG Counterscreen signal). Conditions: FRET deamination/UDG coupled assay, UDG read, 4 h; series mostly up to 115 µM.
For COC(=O)c1ccc(NC(=O)CN(Cc2ccccc2)S(=O)(=O)c2ccc(C)cc2)cc1, the Potency was “inactive”.
For Cc1ccc2oc(=O)c(S(=O)(=O)c3ccc(F)cc3)cc2c1, the Potency was inconclusive: 89.1 µM [inhibitor, single point].
COc1ccccc1CNC(=O)Cn1c(-c2ccc(F)cc2)cc(C(C)=O)c1C was tested, and the Potency was inconclusive: 89.1 µM [inhibitor, single point].
With COc1ccc(-c2nc(C#N)c(NC(C)c3ccccc3)o2)cc1 (stereo not given) the Potency was “inactive”.
For CCOc1ccccc1OC(=O)c1ccccc1, the Potency was “inactive”.
With Cc1ccc(S(=O)(=O)Nc2cc3c(C(=O)OCc4ccccc4)c(C)oc3c3ccccc23)c(C)c1 the Potency was inconclusive: 100 µM [inhibitor, single point].
With COc1ccc(CN2CCN(S(=O)(=O)c3cc(OC)ccc3OC)CC2)cc1 the Potency was inconclusive: 89.1 µM [inhibitor, single point].
With Fc1ccc(C2=CC(c3c(F)cccc3Cl)n3nnnc3N2)cc1 (stereo not given) the Potency was inconclusive: 89.1 µM [inhibitor, single point].
In the case of COc1ccc(OC)c2sc(N(Cc3cccnc3)C(C)=O)nc12, the Potency is reported as inconclusive: 89.1 µM [inhibitor, single point].
For CCOC(=O)c1ccc(NC(=O)CN(Cc2ccc(C)cc2)S(=O)(=O)c2ccc(C)cc2)cc1, the Potency was inconclusive: 89.1 µM [inhibitor, single point].
In the case of Cc1ccccc1OCC(=O)Nc1ccc2oc(-c3ccc(F)cc3)nc2c1, the Potency is reported as inconclusive: 100 µM [inhibitor, partial curve, poor fit].
For Oc1ccc(N=Cc2cccc(OCc3ccccc3)c2)cc1, the Potency was inconclusive: 10 µM [inhibitor, full curve, poor fit].
With Fc1ccc(N2CCN(c3nc4ccccc4c4nc(-c5cccnc5)nn34)CC2)cc1 the Potency was inconclusive: 100 µM [inhibitor, single point].
COC(=O)CNC(=O)/C(C)=C/c1ccccc1 was tested, and the Potency was “inactive”.
In the case of O=C(Cn1cnc2nc3c(cc2c1=O)CCCC3)N1CCN(c2cccc(C(F)(F)F)c2)CC1, the Potency is reported as “inactive”.
For Fc1ccc(N/N=C/c2cccc(Cl)c2)c(F)c1, the Potency was “inactive”.
C=CCn1c(SC(C)C(=O)OC)nc2c1c(=O)[nH]c(=O)n2C (stereo not given) was tested, and the Potency was “inactive”.
With COc1ccc(Nc2ncnc3c2cnn3-c2cc(Cl)ccc2C)cc1OC the Potency was inconclusive: 89.1 µM [inhibitor, single point].
For CCOC(=O)c1ccc(NC(=O)CCCn2nc(C)c3sc4ccccc4c3c2=O)cc1, the Potency was inconclusive: 89.1 µM [inhibitor, single point].
For COc1ccc(Br)c2c1-c1nc(NC(=O)c3ccc(F)cc3)sc1C2, the Potency was inconclusive: 100 µM [inhibitor, partial curve, poor fit].
For COc1ccc(C(=O)CN2CCN(S(=O)(=O)c3ccc(F)cc3)CC2)cc1, the Potency was inconclusive: 89.1 µM [inhibitor, single point].
With CC(=O)N1CCC2(CC1)OC(=O)C(C)=C2C(=O)NCc1ccccc1Cl the Potency was inconclusive: 100 µM [inhibitor, single point].
In the case of Cc1ccc(C)c(N2CCN(C(=O)C3CCN(C(=O)c4cc5sccc5n4C)CC3)CC2)c1, the Potency is reported as inconclusive: 89.1 µM [inhibitor, single point].
For CCN(CC)S(=O)(=O)c1cccc(NS(=O)(=O)c2ccc(C)cc2)c1, the Potency was “inactive”.
With Cc1ccc(CNC(=O)C2(c3cccs3)CCOCC2)cc1 the Potency was inconclusive: 79.4 µM [inhibitor, partial curve].
With CCc1ccc(NC(=O)CSc2nc(C)c(C(=O)Nc3ccc(Cl)cc3)c(-c3ccc(OC)cc3)c2C#N)cc1 the Potency was active: 89.1 µM.
COc1cc(CN(C(=O)COc2ccc(Cl)cc2)c2ccccn2)cc(OC)c1OC was tested, and the Potency was inconclusive: 79.4 µM [inhibitor, single point].
For CC(C)(C)c1ccc(C(=O)NNc2ncnc3c2cnn3-c2ccc(Cl)cc2)cc1, the Potency was inconclusive: 56.2 µM [inhibitor, partial curve, poor fit].
For CCOC(=O)C1CCCN(C(=O)Cn2c(=O)cc(C)c3c(C)nn(C)c32)C1 (stereo not given), the Potency was inconclusive: 89.1 µM [inhibitor, single point].
In the case of CCOC(=O)c1sc(NC(=O)c2cc3nc(-c4ccc(Br)cc4)cc(C(F)(F)F)n3n2)c(C(=O)OCC)c1C, the Potency is reported as inconclusive: 89.1 µM [inhibitor, single point].
For COc1cc2nc(NCC(C)c3ccccc3)n3nc(-c4ccccc4)nc3c2cc1OC (stereo not given), the Potency was inconclusive: 89.1 µM [inhibitor, partial curve, poor fit].
In the case of O=C(NCc1ccccc1Cl)C1CCC(CNS(=O)(=O)c2ccc(Br)s2)CC1 (stereo not given), the Potency is reported as “inactive”.
For COc1ccccc1CNC(=O)CCC1N=C2c3ccccc3N=C(SCC(=O)NCCc3ccc(OC)c(OC)c3)N2C1=O (stereo not given), the Potency was inconclusive: 89.1 µM [inhibitor, partial curve, poor fit].
For COc1ccc(-c2nc3ccccc3o2)cc1NC(=O)c1ccc(Cl)cc1, the Potency was “inactive”.
CC1=C(C(=O)OC(C)C)C(c2ccc(C(C)C)cc2)N2C(=O)CCSC2=N1 (stereo not given) was tested, and the Potency was inconclusive: 89.1 µM [inhibitor, single point].
In the case of OCCNc1nc(Nc2ccccc2)nc2nccnc12, the Potency is reported as “inactive”.
For COc1cc(C(=O)Nc2ccc(-n3c(C)nc4ccccc4c3=O)cc2)cc(OC)c1OC, the Potency was inconclusive: 89.1 µM [inhibitor, single point].
In the case of CCCCn1c(=NC(=O)c2c(-c3c(F)cccc3Cl)noc2C)c(C(=O)OCC)cc2c(=O)n3ccccc3nc21, the Potency is reported as inconclusive: 100 µM [inhibitor, single point].
With Cc1ccc(OC(C)C(=O)N2CCN(CCc3ccncc3)CC2)cc1C (stereo not given) the Potency was inconclusive: 100 µM [inhibitor, single point].
CCOc1ccc(-c2cc3c(=O)n(Cc4nc(-c5ccccc5OCC)oc4C)ccn3n2)cc1Cl was tested, and the Potency was inconclusive: 2.82 µM [inhibitor, full curve, poor fit].
With CC(C)c1ccc(C2C3=C(CC(C)(C)CC3=O)OC3=C2C(=O)CC(C)(C)C3)cc1 the Potency was “inactive”.
In the case of COc1cc(OC)cc(C(=O)Nc2ccc(-c3nc4cc(C(C)C)ccc4o3)cc2)c1, the Potency is reported as inconclusive: 89.1 µM [inhibitor, single point].
With O=C(O)C(Br)Cc1ccc(Cl)cc1 (stereo not given) the Potency was “inactive”.
With Cn1c(=O)c2c(nc(NCCc3ccccc3)n2Cc2ccc(Cl)cc2)n(C)c1=O the Potency was “inactive”.
COc1cc(/C=C/C(=O)OC(C)C(=O)c2ccc(C)cc2)ccc1OCC#N (stereo not given) was tested, and the Potency was “inactive”.
With CC(=O)N1CCc2c(sc3c2c(=O)n(-c2cc(Cl)ccc2C)c(=O)n3Cc2ccccc2F)C1 the Potency was inconclusive: 79.4 µM [inhibitor, partial curve, poor fit].
With CCCCOC(=O)c1ccc(NC(=O)c2cc(-c3cccs3)on2)cc1 the Potency was inconclusive: 89.1 µM [inhibitor, single point].
CCOc1ccccc1Nc1sc(C(=O)c2ccccc2)c(N)c1S(=O)(=O)c1ccc(C)cc1 was tested, and the Potency was inconclusive: 63.1 µM [inhibitor, partial curve, poor fit].
For O=C(NCCN1CCN(C(=O)c2ccccc2)CC1)C(=O)Nc1ccccc1, the Potency was “inactive”.
COc1ccc(N2CCN(C(=O)COCc3cc(-c4ccc5c(c4)OCO5)on3)CC2)cc1 was tested, and the Potency was inconclusive: 89.1 µM [inhibitor, single point].
In the case of COc1ccc(C(=O)Oc2c(Sc3ccc(C)cc3)c(C)nn2C(C)(C)C)cc1OC, the Potency is reported as inconclusive: 79.4 µM [inhibitor, partial curve].
With COC(=O)c1cc(-c2ccc(OC)c(OC)c2)nc2ccccc12 the Potency was inconclusive: 79.4 µM [inhibitor, partial curve, poor fit].
In the case of COc1ccc(CCNc2nc3cc(OC)c(OC)cc3c3nc(-c4ccccc4)nn23)cc1OC, the Potency is reported as inconclusive: 100 µM [inhibitor, partial curve, poor fit].
In the case of CCc1ccccc1NC(=O)CSc1nnc(-c2ccccc2)c(-c2ccccc2)n1, the Potency is reported as inconclusive: 56.2 µM [inhibitor, partial curve, poor fit].
With CCc1nnc(NC(=O)c2nc(SC)ncc2Cl)s1 the Potency was inconclusive: 89.1 µM [inhibitor, single point].
With CC(=O)Nc1nonc1-c1nc2ccccc2n1Cc1ccccc1Br the Potency was inconclusive: 79.4 µM [inhibitor, partial curve].
In the case of O=C(NS(=O)(=O)Cc1ccccc1)c1cccc(F)c1, the Potency is reported as “inactive”.
In the case of CCn1c(=O)cc(SCC(=O)N2CCN(c3ccccc3F)CC2)c2ccccc21, the Potency is reported as inconclusive: 100 µM [inhibitor, single point].
In the case of CS(=O)(=O)N(Cc1csc(-c2cccs2)n1)C1CCN(C(=O)c2ccccc2Cl)CC1, the Potency is reported as inconclusive: 89.1 µM [inhibitor, single point].
Cc1ccc(-n2ncc3c(NCC(C)C)ncnc32)c(C)c1 was tested, and the Potency was “inactive”.
CN(CC(=O)Nc1ccccc1C(F)(F)F)C1CCc2ccccc21 (stereo not given) was tested, and the Potency was “inactive”.
For Cc1cccc(OCC(=O)Nc2ccc3c(c2)nc(CCn2nc(C)cc2C)n3C)c1, the Potency was “inactive”.
In the case of CCOC(=O)c1ccc(NC(=O)CC2C(=O)N(c3ccccc3)C(=O)N2C2CCCCC2)cc1 (stereo not given), the Potency is reported as inconclusive: 31.6 µM [inhibitor, partial curve, poor fit].
With CCOC(=O)c1oc2ccc(S(=O)(=O)n3nc(-c4cc(OCC)c(OCC)c(OCC)c4)cc3N)cc2c1C the Potency was inconclusive: 89.1 µM [inhibitor, single point].
For CCc1cccc(C)c1NC(=O)c1cn2c3c(ccc(Cl)c3c1=O)OC(C)C2 (stereo not given), the Potency was inconclusive: 79.4 µM [inhibitor, partial curve, poor fit].
